Test results taken from PubChem BioAssay AID1346378 (National Center for Advancing Translational Sciences (NCATS), 2018).
Where “and” joins values, the source holds several entries; their conditions need not be identical. Identical values can stand only once. Hit rate of the full screen: of about 420,000 compounds, about 540 (0.13%) were called active. Inconclusive results, whose numbers are uncertain, are shown with a selection of clear calls. Rule as the data show it: active = activity change below about -50%; inconclusive = mostly about -30% to -49%; inactive = weaker than that.

Target: Phosphatidylinositol 4-kinase type 2-alpha (Homo sapiens) (UniProt Q9BTU6)
Sequence of UniProt Q9BTU6 (Q9BTU6 whole entry, looked up): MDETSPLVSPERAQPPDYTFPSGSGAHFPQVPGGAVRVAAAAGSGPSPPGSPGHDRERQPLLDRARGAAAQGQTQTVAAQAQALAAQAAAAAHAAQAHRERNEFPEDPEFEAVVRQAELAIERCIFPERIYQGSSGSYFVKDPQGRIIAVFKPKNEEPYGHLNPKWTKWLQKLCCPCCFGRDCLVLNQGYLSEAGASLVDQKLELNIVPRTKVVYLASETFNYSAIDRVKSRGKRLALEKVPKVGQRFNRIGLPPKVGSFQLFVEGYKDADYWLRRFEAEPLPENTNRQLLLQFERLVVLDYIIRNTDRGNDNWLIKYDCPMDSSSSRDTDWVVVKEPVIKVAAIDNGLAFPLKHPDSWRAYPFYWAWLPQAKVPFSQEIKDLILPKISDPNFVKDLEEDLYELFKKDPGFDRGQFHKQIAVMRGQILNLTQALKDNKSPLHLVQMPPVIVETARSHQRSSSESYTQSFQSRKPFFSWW
Test: qHTS for small molecular inhibitors of PI4K2A;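 also: -100% = wells without enzyme as full effect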
Settings: purified PI4K2A, ADP-Glo luminescence, 1 h; at 76.9 µM, hits give low values
Source text: The phosphatidylinositol 4-phosphate (PI4P) is emerging as a key regulator of lipid transfer in ER-membrane contact sites. The four different phosphatidylinositol 4-kinase (PI4K) enzymes generate PI4P in different membrane compartments supporting distinct cellular processes many of which are crucial for the maintenance of cellular integrity but also hijacked by intracellular pathogens. The goal of this screening project is to search for small molecular inhibitors of PI4K2A based on a high throughput screening strategy.The ADP-Glo assay was used as a starting point to develop a miniaturized version for HTS applications. To implement the HTS screen, the PI4K ADP-Glotrade mark Kinase assay (Promega, V9102) was miniaturized for the 1536-well format used at NCGC.
For the robotic screening, the ADP-Glo assay using the ADP-Glotrade mark Kinase Assay kit from Promega was miniaturized and optimized on 1536-well white solid bottom plates (Greiner Bio-one). The substrate, 1.2 mM PI, prepared in the assay buffer (40mM Tris pH7.5, 20mM MgCl2, 1mM EGTA, 0.4% Triton X-100, 0.5mM DTT, 0.5mg/ml BSA) and PI4K2A enzyme, diluted also in the assay buffer to 4ug/mL, were dispensed onto the plates in equal volumes (1microl/well), pinned with 23 nL/well tested compounds or control followed by dispensation of 1microl/well 300microM ATP. The plates were incubated for one hour. Then, 2 µL/well of ADP-Glo reagent was added and incubated for 40 minutes. Next, 4microL/well of Kinase Detection Buffer was added to the plates and incubated for additional 40 minutes. All incubation steps were performed at ambient temperature. The resulting luminescence signal was measured on Viewlux plate reader (PerkinElmer). Adenosine, a partial non-specific inhibitor, was used as a positive control at 100microM final concentration to assess the assay's quality and plate-to-plate reproducibility. We also used "no enzyme" control to gauge the assay's maximal potential inhibition (IC100).

SMILES	activity change, negative = inhibition
CC(Sc1nnc(Cn2c(=O)sc3ccccc32)n1C)c1ccccc1 (stereo unspecified)	inconclusive: -30.9%
c1ccn2c(c1)nc1c2nc2ccccn21	inactive: -7.9%
Cc1ccc(NC2=CC(=O)C(=O)c3ccccc32)cc1	active: -66.3%
O=c1[nH]c(=O)c2nnc(N/N=C/c3ccccc3F)nc2[nH]1	inactive: -0.185%
O=c1oc2cc(O)ccc2cc1-c1ccccc1	inconclusive: -36.6%
CCc1nnc(N/N=C\c2ccc(OC(C)=O)c(OC)c2)n1N	inconclusive: -32.2%
COc1ccc(-c2cc(=O)[nH][nH]2)cc1	inconclusive: -43%
COc1ccc2sc3ccccc3c(=O)c2c1OC	inactive: -6.41%
C[C@H]1CN=C(Nc2ccccc2)N1CCCC1CCCCC1	inactive: -1.53%
CCOC(=O)c1cnc(SCC(=O)Nc2ccc(NC(C)=O)c(OC)c2)nc1N	inconclusive: -35.3%
Cc1cc(C)n(-c2ccc([N+](=O)[O-])cc2-c2nn[nH]n2)n1	inactive: -4.85%
CCNc1nc(NCC)nc(N/N=C/c2ccc(O)c(O)c2)n1	inconclusive: -35.9%
CCc1nnc(NC(=O)c2nc(S(=O)(=O)Cc3cccc(C)c3)ncc2Cl)s1	inconclusive: -30.2%
Nc1ncc(Br)cc1N=Cc1ccccc1	inconclusive: -36.5%
Cc1ccc(N=C2NC(=O)/C(=C/C=C/c3ccco3)S2)cc1	inconclusive: -42.5%
COc1ccc(C=Cc2ccc3ccccc3n2)c(OC)c1	inconclusive: -45.4%
Fc1ccccc1/C=N/n1c(C2CCCCC2)n[nH]c1=S	inactive: 3.2%
O=C1CSC(=S)N1/N=C/c1ccc(O)c([N+](=O)[O-])c1	active: -62.1%
O=C(O)c1cc(Nc2cc(Cl)c3nonc3c2[N+](=O)[O-])ccc1O	active: -59%
N/C(=N/OC(=O)c1ccccc1F)c1nonc1N	inconclusive: -36.9%
COc1cc(/C=N\Nc2nncn2N)ccc1OC(C)=O	inconclusive: -38.4%
O=C(CSc1nc2nn(-c3ccccc3)c(=O)c-2c2n1CCCCC2)c1ccc(O)c(O)c1	inactive: -5.62%
COC(=O)CSc1nnc([C@H](Cc2ccccc2)NC(=O)OC(C)(C)C)o1	inactive: 3.05%

SMILES	activity change, negative = inhibition
Cc1nnc(N/N=C/c2c(Cl)cccc2Cl)n1N	inconclusive: -35.1%
c1cc2[nH]snc2c2nc(C3CC3)nc12	inconclusive: -37.9%
CN(C)[C@@H]1CCN(c2ccc3c(c2)OCCCN(C2CC2)S3(=O)=O)C1	inactive: -8%
Cc1ccsc1C(=O)Nc1ccc2c(c1)OCCO2	inconclusive: -33.1%
COc1ccc(-n2c(Cc3cccn3C)nnc2SCC(=O)NCc2ccco2)cc1	inconclusive: -33.6%
O=C(NC(Cc1ccccc1)C(=O)O)/C(=C/c1ccccc1)NC(=O)c1ccco1 (stereo unspecified)	inactive: -2.52%
Nc1ccc(O)cc1	inconclusive: -33.7%
CCc1nnc(N/N=C/c2cccs2)n1N	inconclusive: -30.4%
CCC(=O)Nc1ccc2oc(-c3cccc(C)c3)nc2c1	inconclusive: -45.9%
CCN(CC)c1ccc(C(=C2C=CC(=[N+](CC)CC)C=C2)c2cc(S(=O)(=O)O)ccc2S(=O)(=O)[O-])cc1	active: -51.1%
Nc1ncnc2c1ncn2[C@@H]1O[C@H](C(=O)N2CCN(c3nc4ccccc4o3)CC2)[C@@H](O)[C@H]1O	inconclusive: -32.3%
C=C(C)C(=O)Nc1cccc(C2=NOC3(C2)C[C@@H](C(N)=O)N(C(=O)c2ccc(OC)cc2)C3)c1 (stereo partly specified)	inconclusive: -40.9%
CC1(c2nnnn2Cc2ccccc2)CSCC(=O)N1Cc1cccs1 (stereo unspecified)	inactive: -3.48%
O=C1c2ccccc2C(=O)C12OC2c1ccc(Cl)cc1Cl (stereo unspecified)	inactive: -24.6%
COc1ccc(/C=C2\CCc3ccccc3C2=O)cc1O	inconclusive: -46.8%
c1ccc2nc(-c3nc4ccccc4[nH]3)ccc2c1	active: -65.9%
CC(C)C(=O)N(c1ccc2oc(=O)sc2c1)S(=O)(=O)c1cccs1	inconclusive: -47.4%
COc1ccc2[nH]c3c(NCCCOC(C)C)ncnc3c2c1	inconclusive: -42.2%
COCCNC(=O)CCC(=O)NNc1nc2ccccc2c2nc(-c3ccccc3)nn12	inactive: 3.11% and inactive: -7.62%
O=C(O)c1ccc(COc2cccc(CO)c2)cc1	inconclusive: -36%
CN(C)c1cccc2c(S(=O)(=O)Nc3ccccn3)cccc12	inconclusive: -36%
CCOc1ccccc1CNC(=O)Nc1cn(CC(C)C)c(=O)c2ccccc12	inconclusive: -38.6%
CN(C)c1ccc(/C=C/c2ccc3c4ccccc4ccc3[n+]2-c2ccccc2)cc1	active: -54.1%

SMILES	activity change, negative = inhibition
O=C(c1cc(COc2cccc(C(F)(F)F)c2)on1)N1CCC(c2ccncc2)CC1	inactive: -1.19%
Cc1cc2nc3ccc(=[N+](C)C)cc-3sc2cc1N	inconclusive: -39.5%
COC(=O)c1sccc1NC(=O)Nc1ccc(OC)cc1	active: -57.4%
Nc1nc(=S)c2ncn(C3OC(CO)C(O)C3O)c2[nH]1 (stereo unspecified)	inactive: -12.2%
c1coc(-c2ccc3nncn3c2)c1	inconclusive: -47.5%
COc1ccc(/C=N/Nc2ncccc2[N+](=O)[O-])c(OC)c1	inconclusive: -48.8%
CC(=O)Oc1ccc(-c2nc(-c3cccnc3)no2)cc1	inconclusive: -38%
Cc1c(C(=O)O)c(O)cc2c1C(=O)c1c(O)c([C@@H]3O[C@H](CO)[C@@H](O)[C@H](O)[C@H]3O)c(O)c(O)c1C2=O	inconclusive: -36%
O=C(Cc1coc2cc3c(cc12)CCC3)OCc1cc(=O)n2c(n1)sc1ccccc12	inactive: -8.98%
Cc1ccc(C=C2C(=O)c3ccccc3C2=O)o1	inconclusive: -40.6%
O=C(N/N=C/c1ccc(O)cc1)c1ccncc1	inactive: -0.642%
c1coc(-c2nc(-c3ccco3)c(-c3ccco3)nc2-c2ccco2)c1	inconclusive: -49%
CC1(C(=O)NCc2ccccc2)Cc2c(-c3cccc(C(N)=O)c3)ccnc2O1 (stereo unspecified)	inactive: -1.09%
Cc1nc2ccc(C(=O)N/N=C/c3cc([N+](=O)[O-])ccc3O)cc2[nH]1	inconclusive: -49.9%
Cc1ccc(S(=O)(=O)Nc2ccc3oc(=O)sc3c2)c(C)c1	inconclusive: -31.5%
O=C(c1ccc2c3n(nc2c1)-c1ccccc1CO3)N1CCCCC1	inconclusive: -34.8%
O=C1C=C(N2CCCCC2)c2ccccc2C1=O	inconclusive: -44.6%
Cc1ccc(C)n1NC(=O)c1cccs1	inconclusive: -32.9%
Oc1ccc(/C=N/Nc2nccnc2Cl)c(O)c1	active: -67%
CC(=O)Oc1c(Br)cc(N(C(C)=O)S(=O)(=O)c2ccccc2)c2ccccc12	inconclusive: -37.8%
Cc1cc(O)cc2c1C(=O)/C(=C/c1ccco1)O2	inconclusive: -40.7%
CCCCn1c(/C=C/c2ccco2)nc2ccccc21	inactive: -4.16%
COC(=O)[C@@]12C[C@@H](CC(=O)NCc3ccc(C)o3)C(=O)N(Cc3cccc4ccccc34)C1=CCC(C)(C)C2	inactive: 1.39%

SMILES	activity change, negative = inhibition
COc1ccc(NC(=O)N2CCc3ccccc32)cc1	active: -53.7%
CCOc1ccccc1N1CCN(C(=O)CN2C(=O)NC3(CCCC3)C2=O)CC1	inactive: 5.71%
COc1ccc(S(=O)(=O)N2CCN(C(=O)c3cc4c(s3)CCC4)CC2)cc1	inconclusive: -37.8%
CCOc1cc(N2CCOCC2)c(OCC)cc1NC(=O)CSc1ncccc1C(=O)O	inconclusive: -34.6%
CN(C)C(=O)c1ccc(NC(=O)c2cncc(Br)c2)cc1	inconclusive: -30.7%
C/C(=N\NC(=O)CC(C)C)c1c(C(F)(F)F)[nH]n(-c2nc3ccccc3s2)c1=O	inconclusive: -41.8%
Cc1nc(-c2ccc(C(=O)O)cc2)cs1	inconclusive: -31.6%
O=c1cnnc(SCCc2ccccc2)[nH]1	inactive: -0.669%
N#CC1=C(N)N(c2ccc(F)cc2)C2=C(C1c1ccc(O)cc1)S(=O)(=O)CC2 (stereo unspecified)	inactive: -5.13%
CC(C)N(C(=O)COC(=O)c1ccccc1C(=O)c1ccc(Cl)c([N+](=O)[O-])c1)C(C)C	inconclusive: -31.8%
O=C(NC1(O)C(=O)c2ccccc2C1=O)c1ccccc1	inconclusive: -35.8%
COc1ccc2cc3cc(C(=O)NC4CC4)sc3nc2c1	inconclusive: -44.7%
Cc1cc(N)n2nc(-c3ccccc3)cc2n1	active: -53.7%
COc1ccc(S(=O)(=O)Nc2cc(SCC(=O)O)c(O)c3ccccc23)cc1	inconclusive: -36.2%
CCOC(=O)C1(C)C=C(Nc2ccc(O)cc2)C(=O)N1c1ccc(O)cc1 (stereo unspecified)	inconclusive: -47.6%
c1ccc(-c2noc(-c3ccncc3)n2)nc1	inconclusive: -42.6%
CCCC1CCC2(CCC(=O)N2CCSc2ccccc2)CC1 (stereo unspecified)	inactive: -0.284%
Cn1cc(Br)c(C(=O)Nc2sc3c(c2C(N)=O)CCC3)n1	inactive: 0.387%
COC(=O)c1sccc1NC(=O)c1ccccc1[N+](=O)[O-]	inactive: 4.49%
Cc1ccc(Cn2c(=N)c(C(=O)NCc3ccco3)cc3c(=O)n4ccccc4nc32)cc1	inconclusive: -34.3%
CN(C)CCn1nnnc1SCC1=C(C(=O)O)N2C(=O)[C@@H](NC(=O)Cc3csc(N)n3)[C@H]2SC1	inconclusive: -31.5%
CCOc1ccc(N=Nc2c(=O)[nH]n3c(=O)cc(C)[nH]c23)cc1	inconclusive: -34.3%
